# Assay results published in the supplement of paper PMC10369915.
# The list shows a part of the results. Cut-off read from the data, not from the text of the source: active = 3.2 or more and inactive = the rest. Most of these values are background signal.
# Target: SHP2 C-SH2 domain E139D
# Experiment: enrichment score (SH2-bound / input frequency) (ratio); bacterial display of known human phosphotyrosine sites (pTyr-Var adds point mutants) read by sequencing; higher = stronger binding; tyrosines were phosphorylated by kinases first
# Conditions: peptide library: pTyr-Var
# 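Note: displayed peptides selected on beads carrying the immobilized SH2 domain, with library peptides lacking any tyrosine serving as negative controls.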
row,Binder,enrichment score
1,KEDSVYGSQSV [NFKB2_Y868_A867V],inactive: 0.491
2,RSFLSYYTSHV [NEFL_Y442_P440L],inactive: 1.97
3,FQKDVYNIPPS [NEDD9_Y177_D178N_YF],inactive: 0.815
4,LTSKPYAFTAW [NDUFS1_Y236_R241W],inactive: 0.983
5,GMTLSYLFWEP [NDUFS8_Y74_R77W],inactive: 2.47
6,GASRRYGSGVS [NEU1_Y242_W240R],inactive: 0.203
7,TRSFKCLLLSM [NF1_Y491_Y491C_YF],inactive: 1.96
8,TSEASYYKSLN [NGEF_Y288],inactive: 0.672
9,EMFNPCFGLFE [NEDD4L_Y679_Y679C_YF],inactive: 1.14
10,SESSYYKSLNL [NGEF_Y289_A286S],inactive: 0.858
11,GMTLSYLFREL [NDUFS8_Y74_P79L],active: 3.7
12,SLFNGYVYSGM [NEIL3_Y71_V76M],inactive: 1.79
13,LPENPYHSRPR [NDUFA8_Y142],inactive: 0.584
14,GMTLSYLFREP [NDUFS8_Y74],inactive: 2.14
15,SLFNGYVYSGV [NEIL3_Y71],inactive: 0.945
16,EMFNPYFGLFE [NEDD4L_Y679_YF],inactive: 1.5
17,TRSYKYLLLSM [NF1_Y491],active: 4.76
18,TSEASYFKSLN [NGEF_Y288_YF],inactive: 0.463

# Target: SHP2 C-SH2 domain wild-type
# Experiment: as above
# Conditions: peptide library: pTyr-Var
row,Binder,enrichment score
1,KEDSVYGSQSV [NFKB2_Y868_A867V],inactive: 0.517
2,RSFLSYYTSHV [NEFL_Y442_P440L],inactive: 1.77
3,FQKDVYNIPPS [NEDD9_Y177_D178N_YF],inactive: 0.704
4,LTSKPYAFTAW [NDUFS1_Y236_R241W],inactive: 0.971
5,GMTLSYLFWEP [NDUFS8_Y74_R77W],inactive: 2.4
6,GASRRYGSGVS [NEU1_Y242_W240R],inactive: 0.299
7,TRSFKCLLLSM [NF1_Y491_Y491C_YF],inactive: 1.92
8,TSEASYYKSLN [NGEF_Y288],inactive: 0.577
9,EMFNPCFGLFE [NEDD4L_Y679_Y679C_YF],inactive: 1.01
10,SESSYYKSLNL [NGEF_Y289_A286S],inactive: 0.893
11,GMTLSYLFREL [NDUFS8_Y74_P79L],inactive: 3.16
12,SLFNGYVYSGM [NEIL3_Y71_V76M],inactive: 2.44
13,LPENPYHSRPR [NDUFA8_Y142],inactive: 0.63
14,GMTLSYLFREP [NDUFS8_Y74],inactive: 2.16
15,SLFNGYVYSGV [NEIL3_Y71],inactive: 1.58
16,EMFNPYFGLFE [NEDD4L_Y679_YF],inactive: 1.16
17,TRSYKYLLLSM [NF1_Y491],active: 4.85
18,TSEASYFKSLN [NGEF_Y288_YF],inactive: 0.491

# Target: SHP2 N-SH2 domain L43F
# Experiment: as above
# Conditions: peptide library: pTyr-Var
row,Binder,enrichment score
1,KEDSVYGSQSV [NFKB2_Y868_A867V],inactive: 0.659
2,RSFLSYYTSHV [NEFL_Y442_P440L],inactive: 2.79
3,FQKDVYNIPPS [NEDD9_Y177_D178N_YF],inactive: 0.572
4,LTSKPYAFTAW [NDUFS1_Y236_R241W],inactive: 0.896
5,GMTLSYLFWEP [NDUFS8_Y74_R77W],inactive: 2.52
6,GASRRYGSGVS [NEU1_Y242_W240R],inactive: 0.255
7,TRSFKCLLLSM [NF1_Y491_Y491C_YF],inactive: 1.56
8,TSEASYYKSLN [NGEF_Y288],inactive: 0.521
9,EMFNPCFGLFE [NEDD4L_Y679_Y679C_YF],inactive: 1.01
10,SESSYYKSLNL [NGEF_Y289_A286S],inactive: 0.724
11,GMTLSYLFREL [NDUFS8_Y74_P79L],inactive: 3.19
12,SLFNGYVYSGM [NEIL3_Y71_V76M],inactive: 1.49
13,LPENPYHSRPR [NDUFA8_Y142],inactive: 0.675
14,GMTLSYLFREP [NDUFS8_Y74],inactive: 2.13
15,SLFNGYVYSGV [NEIL3_Y71],inactive: 0.849
16,EMFNPYFGLFE [NEDD4L_Y679_YF],inactive: 1.29
17,TRSYKYLLLSM [NF1_Y491],active: 5.31
18,TSEASYFKSLN [NGEF_Y288_YF],inactive: 0.41

# Target: SHP2 N-SH2 domain T42A
# Experiment: as above
# Conditions: peptide library: pTyr-Var
row,Binder,enrichment score
1,KEDSVYGSQSV [NFKB2_Y868_A867V],inactive: 0.392
2,RSFLSYYTSHV [NEFL_Y442_P440L],inactive: 1.8
3,FQKDVYNIPPS [NEDD9_Y177_D178N_YF],inactive: 0.627
4,LTSKPYAFTAW [NDUFS1_Y236_R241W],inactive: 1.09
5,GMTLSYLFWEP [NDUFS8_Y74_R77W],inactive: 2.1
6,GASRRYGSGVS [NEU1_Y242_W240R],inactive: 0.232
7,TRSFKCLLLSM [NF1_Y491_Y491C_YF],inactive: 1.69
8,TSEASYYKSLN [NGEF_Y288],inactive: 0.509
9,EMFNPCFGLFE [NEDD4L_Y679_Y679C_YF],inactive: 1.02
10,SESSYYKSLNL [NGEF_Y289_A286S],inactive: 1.09
11,GMTLSYLFREL [NDUFS8_Y74_P79L],inactive: 2.82
12,SLFNGYVYSGM [NEIL3_Y71_V76M],inactive: 1.76
13,LPENPYHSRPR [NDUFA8_Y142],inactive: 0.619
14,GMTLSYLFREP [NDUFS8_Y74],inactive: 2.19
15,SLFNGYVYSGV [NEIL3_Y71],inactive: 1.28
16,EMFNPYFGLFE [NEDD4L_Y679_YF],inactive: 1.24
17,TRSYKYLLLSM [NF1_Y491],active: 9.74
18,TSEASYFKSLN [NGEF_Y288_YF],inactive: 0.409

# Target: SHP2 N-SH2 domain T52S
# Experiment: as above
# Conditions: peptide library: pTyr-Var
row,Binder,enrichment score
1,KEDSVYGSQSV [NFKB2_Y868_A867V],inactive: 0.439
2,RSFLSYYTSHV [NEFL_Y442_P440L],inactive: 2.81
3,FQKDVYNIPPS [NEDD9_Y177_D178N_YF],inactive: 0.677
4,LTSKPYAFTAW [NDUFS1_Y236_R241W],inactive: 1.13
5,GMTLSYLFWEP [NDUFS8_Y74_R77W],inactive: 2.42
6,GASRRYGSGVS [NEU1_Y242_W240R],inactive: 0.278
7,TRSFKCLLLSM [NF1_Y491_Y491C_YF],inactive: 1.64
8,TSEASYYKSLN [NGEF_Y288],inactive: 0.524
9,EMFNPCFGLFE [NEDD4L_Y679_Y679C_YF],inactive: 1.19
10,SESSYYKSLNL [NGEF_Y289_A286S],inactive: 0.722
11,GMTLSYLFREL [NDUFS8_Y74_P79L],inactive: 3.14
12,SLFNGYVYSGM [NEIL3_Y71_V76M],inactive: 1.39
13,LPENPYHSRPR [NDUFA8_Y142],inactive: 0.631
14,GMTLSYLFREP [NDUFS8_Y74],inactive: 2.49
15,SLFNGYVYSGV [NEIL3_Y71],inactive: 0.938
16,EMFNPYFGLFE [NEDD4L_Y679_YF],inactive: 1.19
17,TRSYKYLLLSM [NF1_Y491],active: 6.08
18,TSEASYFKSLN [NGEF_Y288_YF],inactive: 0.437

# Target: SHP2 N-SH2 domain wild-type
# Experiment: as above
# Conditions: peptide library: pTyr-Var
row,Binder,enrichment score
1,KEDSVYGSQSV [NFKB2_Y868_A867V],inactive: 0.486
2,RSFLSYYTSHV [NEFL_Y442_P440L],inactive: 1.93
3,FQKDVYNIPPS [NEDD9_Y177_D178N_YF],inactive: 0.657
4,LTSKPYAFTAW [NDUFS1_Y236_R241W],inactive: 0.95
5,GMTLSYLFWEP [NDUFS8_Y74_R77W],inactive: 2.75
6,GASRRYGSGVS [NEU1_Y242_W240R],inactive: 0.339
7,TRSFKCLLLSM [NF1_Y491_Y491C_YF],inactive: 1.98
8,TSEASYYKSLN [NGEF_Y288],inactive: 0.492
9,EMFNPCFGLFE [NEDD4L_Y679_Y679C_YF],inactive: 0.999
10,SESSYYKSLNL [NGEF_Y289_A286S],inactive: 0.757
11,GMTLSYLFREL [NDUFS8_Y74_P79L],inactive: 2.9
12,SLFNGYVYSGM [NEIL3_Y71_V76M],inactive: 1.6
13,LPENPYHSRPR [NDUFA8_Y142],inactive: 0.556
14,GMTLSYLFREP [NDUFS8_Y74],inactive: 2.21
15,SLFNGYVYSGV [NEIL3_Y71],inactive: 0.9
16,EMFNPYFGLFE [NEDD4L_Y679_YF],inactive: 0.901
17,TRSYKYLLLSM [NF1_Y491],active: 4.18
18,TSEASYFKSLN [NGEF_Y288_YF],inactive: 0.475
